# Results published in PubChem BioAssay AID1671189 (National Center for Advancing Translational Sciences (NCATS), 2021).
# The whole screen tested about 1,100 compounds, of which about 70 (6%) were called active. Inconclusive results (about 22%) are left out. Calls come from the whole dose curve; as a rule, active = well fitted curve in the direction sought with a large enough effect; inconclusive = small, poorly fitted or top-dose-only effect, or another doubt; inactive = no such curve, though single readings can be large or run the other way. The list shows a part of the results.
# Molecular target: Polyunsaturated fatty acid lipoxygenase ALOX12 (Homo sapiens) (UniProt P18054)
# Experiment: Confirmatory qHTS assay for inhibitors of human arachidonate 12S-lipoxygenase (ALOX12): Round 2
# Details: purified human 12-LOX, xylenol orange absorbance; series mostly up to 125 µM; activity change, negative = inhibition: at the top concentration
# Source text: Assay Provider: Theodore R. Holman Ph.D. University of California, Santa Cruz, California Human lipoxygenase 12hLO is a member of the closely related lipoxygenase family of enzymes which catalyze the site-specific oxidation of arachidonic acid to various hormone precursor molecules and as such is a candidate for drug development in a variety of disease areas, such as cancer and inflammation. Inhibition of 12hLO activity was screened by utilizing arachidonic acid as a substrate. The extent of hydroperoxide product formation was measured by a secondary chromogenic reaction in which xylenol orange (XO, Sigma-Aldrich, cat. number 39,818-7) reacts with the ferric ions produced from the reaction between the hydroperoxide and ferrous ions. The Fe (III)-XO complex is characterized with red-shifted absorbance at 560 nm. A purified preparation of human 12hLO was supplied by Dr. Holman laboratory, University of California, Santa Cruz.
# PROTOCOL TABLE SEQUENCE No. (e.g., 1, 2, 3, etc.); […] (e.g., Cells, Incubation, Reagent, etc.); VALUE; DESCRIPTION 1; Enzyme; 3 uL; 150 nM 12hLO enzyme solution dispensed in 1536-well Greiner black, clear bottom plates. 2; Compound; 23 nL; compounds and controls were added. 3; Incubate; 15 min; room temperature. 4; Substrate; 1 uL; 40 uM arachidonic acid (final concentration). 5; Incubate; 30 min; room temperature. 6; Reagent; 4 uL; Fe-XO solution was added to each well. 7; Incubation; 30 min; room temperature 8; Detector; absorbance; Read 1 at 405 nm absorbance using ViewLux (PerkinElmer) CCD imager. 9; Detector; absorbance; Read 2 at 573 nm absorbance using ViewLux (PerkinElmer) CCD imager. NOTES (numbers refer to sequence above) 1; 150 nM 12hLO (final concentration) in buffer solution (25 mM Hepes, 0.01% Triton X-100, pH 7.0) was dispensed in columns 1, 2, 5-48. Column 1 is neutral (100% activity). Buffer only was dispensed in columns 3 and 4 as no enzyme negative controls. The plates were covered with metal lids with gas-exchange holes. 2; Compounds were pin transferred via a Kalypsys Pin Tool (Wako USA) in column 5 - 48. Control compound was transferred in column 2, titration of nordihydroguaiaretic acid (NDGA, Sigma-Aldrich, N5023) with top concentration of 20 mM in DMSO then 1:3 dilution in duplicate. Dilution factor of 23 nL into 4 uL final assay volume. 3; Covered assay plates were incubated for 15 min at room temperature. 4; Substrate was added to start the reaction; 40 uM arachidonic acid (Sigma-Aldrich, St. Louis, MO) was dispensed throughout the plate. 6; Chromogenic detection reagent solution (divalent iron/xylenol orange, Fe-XO) was added to each well: 200 uM xylenol orange, 300 uM ferrous ammonium sulfate prepared freshly in 50 mM sulfuric acid. 8, 9; Two absorbance readouts were obtained at 405 nm and at 573 nm using a ViewLux high-throughput CCD plate imager (PerkinElmer). The 573 to 405 (Read 2 / Read 1) absorbance ratio was used to compute reaction progress.
# % is set by controls: 0 for no effect and ±100 for the full control effect; potency is the fitted concentration of half-maximal effect.
# Chain of UniProt P18054 (P18054 whole entry, looked up): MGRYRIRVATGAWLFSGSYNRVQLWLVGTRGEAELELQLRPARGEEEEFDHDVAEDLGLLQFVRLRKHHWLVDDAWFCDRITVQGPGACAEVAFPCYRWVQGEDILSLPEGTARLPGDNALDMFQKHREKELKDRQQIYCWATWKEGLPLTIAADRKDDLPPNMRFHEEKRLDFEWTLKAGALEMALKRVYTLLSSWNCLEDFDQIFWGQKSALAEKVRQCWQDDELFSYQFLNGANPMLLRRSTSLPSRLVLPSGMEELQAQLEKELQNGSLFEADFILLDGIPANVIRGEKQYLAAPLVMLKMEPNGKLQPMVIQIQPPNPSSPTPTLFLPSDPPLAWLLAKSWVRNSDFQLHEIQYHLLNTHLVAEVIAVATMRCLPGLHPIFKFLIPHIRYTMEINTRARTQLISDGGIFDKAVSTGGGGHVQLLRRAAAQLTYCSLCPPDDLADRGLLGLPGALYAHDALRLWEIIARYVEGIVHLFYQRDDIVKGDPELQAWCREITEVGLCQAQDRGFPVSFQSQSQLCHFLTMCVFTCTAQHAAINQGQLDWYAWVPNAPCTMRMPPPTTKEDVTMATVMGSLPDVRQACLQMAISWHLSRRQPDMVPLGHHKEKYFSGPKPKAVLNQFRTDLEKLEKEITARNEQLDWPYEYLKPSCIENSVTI
SMILES,"activity change, negative = inhibition",Potency
CN1CC(=O)N(C2CCCNCC2)Cc2c(NCC(C)(C)C)ncnc21 (stereo not given),inactive: 0.649%,
CC(C)CCN1CCn2c(nn(-c3ccc(Cl)cc3)c2=O)C1,inactive: -11.1%,
COc1ccc(-n2cc(-c3ccnc(NCCC4CCCN4C)n3)cn2)cc1 (stereo not given),inactive: -14.8% [at 64.5 µM],
COCc1nc(C2CC(N)C2)cc(N2CCC3(CC2)CNC(=O)O3)n1 (stereo not given),inactive: -10.8% [at 64.5 µM],
O=[S+]([O-])(c1ccncc1)c1nnn2c1nc(NCc1ccc(F)cc1)c1ccccc12,inactive: -10%,
Cn1nc(C2CCCN2)c2c(C(=O)NCc3ccc(F)cc3)cc(C3CC3)nc21 (stereo not given),inactive: -19.8%,
O=C(OCC#CCSc1nnc(-c2cccc3ccccc23)o1)c1sccc1Cl,inactive: 8.4% [at 64.5 µM],
OC1(CN2CCN(c3nccs3)CC2)CCCNC1 (stereo not given),inactive: -6.16% [at 64.5 µM],
CNC(C)c1ccc(Oc2ccccc2)cc1 (stereo not given),inactive: -25.5%,
NCc1cccc(-c2ccccc2F)c1,inactive: -2.12%,
CSc1ccc(-c2ccc(C=O)cc2)cc1,inactive: -29.7% [at 233 µM],
CCOCCNc1ncnc2c1CN(C1CCCNCC1)C(=O)CN2C (stereo not given),inactive: -8.97%,
CNC1CCOc2ccccc21 (stereo not given),inactive: -10.9%,
CCc1cccc(C)c1NC(=O)C(CC)Sc1nc2ccncc2[nH]1 (stereo not given),inactive: 2.01%,
O=C1NCCN1C1CCN(Cc2ccc(F)cc2)CC1,inactive: -13.2%,
CN1CC(=O)N(C2CCNCC2)Cc2c(NCC3CCCCC3)ncnc21,inactive: -21.1%,
O=C(NC1CC1)c1cc(-c2ccccc2C(F)(F)F)nc2onc(C3CCNC3)c12 (stereo not given),inactive: -24.9%,
CN(C)CCC(=O)N1Cc2ccccc2CC2(CCCN(C)C2)C1 (stereo not given),inactive: 11.5%,
Nc1cc(-c2ccccc2)ccc1O,,active: 273 nM
Cc1cc(C)cc(-c2ccc(CN3CCCC(c4nc5ccc(F)cc5c(=O)[nH]4)C3)cc2)c1 (stereo not given),inactive: -20.9%,
CC(=O)NCCC(=O)N1Cc2ccccc2CC2(CCN(CC3CCNC3)CC2)C1 (stereo not given),inactive: -10.6%,
CN1CC(=O)N(C2CCC2)Cc2c(NC3CCNCC3)ncnc21,inactive: -10.6%,
COCC(C)NC(=O)c1csc2nc(-c3cccc(C(F)(F)F)c3)cn12 (stereo not given),inactive: -3.92% [at 64.5 µM],
NCc1ccc(-c2cc(C(F)(F)F)ccc2Cl)cc1,inactive: -18.7%,
O=C(O)CCC(=O)N1Cc2ccccc2CC2(CCCN2Cc2ccccc2)C1 (stereo not given),inactive: -16.3%,
O=c1[nH]c(C2CCN(Cc3ccc(-c4cccnc4)cc3)CC2)nc2ccc(F)cc12,inactive: -14.8%,
O=C(c1cc(-c2ccco2)nn1-c1cccc(Cl)c1)N1CCCCC1,,active: 9680 nM
O=C1NCc2ccccc2CC12CCN(Cc1ccccc1OC(F)(F)F)C2 (stereo not given),inactive: -19.4%,

SMILES,"activity change, negative = inhibition",Potency
CC(=O)NCc1cc(Cl)c2cccnc2c1O,,active: 1930 nM
Cc1noc(C)c1C(=O)N1Cc2ccccc2CC2(CCN(CC3CCNCC3)C2)C1 (stereo not given),inactive: -7.04%,
COc1ccc(N2CCN(CC(O)COc3ccc(C(C)(C)C)cc3)CC2)cc1 (stereo not given),inactive: -5.35%,
COc1cccc(N2C(=O)NC(=NC3CCCCC3)C23CCCN([S+](=O)([O-])c2cccc(C(F)(F)F)c2)C3)c1 (stereo not given),inactive: -19.8%,
Cc1cc(C)n(CC2(Cn3cc(C4CCCNC4)nn3)CC2)n1 (stereo not given),inactive: -6.78% [at 64.5 µM],
CN1CC(=O)N(C2CCNC2)Cc2c(NC3CCCCCC3)ncnc21 (stereo not given),inactive: -10.2%,
CCN(CC)CCOc1ccc2c(c1)C(=O)c1cc(OCCN(CC)CC)ccc1-2,inactive: -12%,
CC(C)(N)C(=O)N1CCCC(N2CCN(Cc3ccc4c(c3)OCO4)CC2)C1 (stereo not given),inactive: -16% [at 64.5 µM],
CCCCN1C(=O)[C@@H]2C[C@@H](O)CN2C2(CN(Cc3cnc[nH]3)C2)C1=O,inactive: 16.1% [at 64.5 µM],
Cc1ccc2c(c1)nc1n2[C@@H](CNCc2ccccc2)COC1,inactive: -0.215% [at 64.5 µM],
C[C@H](C(=O)N1Cc2ccccc2CC2(CCN(C)C2)C1)c1ccccc1 (stereo not given in full),inactive: -12.6%,
CC(CO)Nc1ncnc2c1CN(C1CCCNCC1)C(=O)CN2C (stereo not given),inactive: -8.62%,
O=C1Nc2ccccc2CNC12CCN(CC1CCNC1)CC2 (stereo not given),inactive: -13.5%,
COc1ccc(C(=O)N2CCOC[C@H](Oc3cccnc3)C2)cc1,inactive: 23.1% [at 64.5 µM],
c1cncc(CN2CCn3c(nnc3C3CCCNC3)C2)c1 (stereo not given),inactive: -15.9%,
O=C1NCc2ccccc2CC12CCN(Cc1cnc3ccccc3c1)CC2,inactive: -27.7%,
CC(=O)N1CCN(c2ncnc3c2CN(C2CCCNCC2)C(=O)CN3C)CC1 (stereo not given),inactive: 5.14%,
CN(C)C(=O)c1c[nH]c2cccnc12,inactive: 1.15% [at 233 µM],
CCn1cnnc1CC1CCCNC1 (stereo not given),inactive: -10.2% [at 64.5 µM],
NCC(=O)N1Cc2ccccc2CC12CCCN(C(=O)c1ccccc1)C2 (stereo not given),inactive: 0.616%,
CN(C)CCNC(=O)c1cc2n(n1)CCCN(C(=O)[C@@H]1CCCN1)C2,inactive: -7.18% [at 64.5 µM],
COC[C@@H]1CCCN1c1ncnc2c1CN(C1CCNC1)C(=O)CN2C (stereo not given in full),inactive: 23%,
Cc1ccc(CN2CCCC23Cc2ccccc2CNC3=O)cc1 (stereo not given),inactive: -19.1%,
O=C(O)CCCC(=O)N1Cc2ccccc2CC2(CCCN(Cc3ccncc3)C2)C1 (stereo not given),inactive: -7.61%,
COC[C@@H]1CCCN1c1ncnc2c1CN(C1CCCNCC1)C(=O)CN2C (stereo not given in full),inactive: -20.5%,
CN1CC(=O)N(C2CCCNCC2)Cc2c1ncnc2N1CCc2ccccc2C1 (stereo not given),inactive: -7.62%,
CCC(=O)NC(c1ccco1)c1cc(Cl)c2cccnc2c1O (stereo not given),,active: 2170 nM
